The campaign covered roughly 45,000 compounds. About 65 (0.1%) were called active. Calls follow the shape of the dose curve; as a rule, active = well fitted activation curve with a large enough effect; inconclusive = small, poorly fitted or top-dose-only effect; inactive = no such curve, though single readings can be large or run the other way. This is one part of the list.
Target: Galactocerebrosidase (Homo sapiens) (UniProt P54803)
Assay: A Novel Cell-Based Assay to Identify Small Molecules for B -Galactocerebrosidase; also: 0% is about no effect; nearly all actives have a fitted effect of over 65% in size
Details: 145M-Twi-hGALC-G270D cells (Twitcher mouse brain line with human GALC G270D), HMU-beta-Gal fluorescence, 48 h; series mostly up to 57.5 µM; activation: at the top concentration
Summary of the method: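 Mutant human GALC (G270D), stably expressed in a Twitcher mouse brain cell line lacking endogenous GALC, is measured in live-treated cells via 6-hexadecanoylamino-4-methylumbelliferyl-β-galactoside hydrolysis (0.1 mM final, pH 5.2) with fluorescent detection.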

Sequence of UniProt P54803 (P54803 whole entry, looked up): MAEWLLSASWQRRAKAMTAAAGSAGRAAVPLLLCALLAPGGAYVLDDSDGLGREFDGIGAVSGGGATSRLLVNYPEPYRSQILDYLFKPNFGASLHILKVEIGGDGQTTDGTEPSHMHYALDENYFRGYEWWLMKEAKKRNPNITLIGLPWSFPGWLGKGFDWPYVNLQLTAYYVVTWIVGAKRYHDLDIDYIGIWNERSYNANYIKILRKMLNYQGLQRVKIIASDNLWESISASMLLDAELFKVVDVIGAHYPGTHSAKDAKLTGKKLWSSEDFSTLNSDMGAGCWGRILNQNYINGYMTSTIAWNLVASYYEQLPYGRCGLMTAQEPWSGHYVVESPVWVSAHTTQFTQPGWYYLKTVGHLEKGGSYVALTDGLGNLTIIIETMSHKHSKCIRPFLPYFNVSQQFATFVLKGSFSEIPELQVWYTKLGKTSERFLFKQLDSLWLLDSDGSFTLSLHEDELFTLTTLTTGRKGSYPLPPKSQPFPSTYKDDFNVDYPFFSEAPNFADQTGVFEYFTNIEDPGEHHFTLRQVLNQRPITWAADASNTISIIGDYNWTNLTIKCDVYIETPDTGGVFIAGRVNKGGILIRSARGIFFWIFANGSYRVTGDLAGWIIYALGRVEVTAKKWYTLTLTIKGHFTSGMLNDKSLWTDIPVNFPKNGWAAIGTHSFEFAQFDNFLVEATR

activation, inactive:
O=C1NCC2(CCN(CCc3ccccc3)CC2)O1 -5.54%
CCCCOc1ccccc1Cn1c(=O)sc2ccccc21 -16%
CCOc1ccc(CN2C(=O)C(=O)c3cccc(C)c32)cc1OC -20%
Cc1cccc(Nc2cc(C)nc(-n3nc(C)cc3C)n2)c1 -8.54%
Cc1c(C(=O)Nc2ccc(F)cc2)oc2ccc(S(=O)(=O)N3CCCCCC3)cc12 -2.12%
CCc1cccc(N2C(=O)CS(=O)(=O)C23C(=O)N(Cc2ccccc2)c2ccc(C)cc23)c1 (stereo unspecified) -25.9%
Cc1ccc(Nc2nc3ccccc3nc2-n2nc(C)cc2C)c(Cl)c1 -10.2%
Cc1cccc(C(=O)N2c3ncnn3C3(CCCCC3)[C@@H]3CCCC[C@@H]32)c1 -10.5%
CSc1ccc(CNC(=O)c2sc3ncnc(N(C)C4CCCCC4)c3c2C)cc1 -3.19%
Cc1cc(C)c(NC(=O)C2CCN(C(=O)N3CCOc4ccccc43)CC2)c(C)c1 -18.5%
COc1cc2c(cc1NC(=O)COc1ccc(Br)cc1)oc1ccccc12 -23.6%
COC(=O)c1ccc2c(=O)n(CCc3ccc(S(N)(=O)=O)cc3)c(SCC(=O)C(C)(C)C)nc2c1 -16.5%
COc1ccc(-c2cc(C(F)(F)F)n3ncc(-c4ccccc4)c3n2)cc1 -25.1%
CCOC(=O)c1cccc(NS(=O)(=O)c2ccc(-c3coc(C)n3)cc2)c1 -10.4%
CSc1ccc(/C=C/c2nc3ccccc3n2S(=O)(=O)c2ccc(Br)cc2)cc1 -7.27%
Cc1ccc(N2CCN(Cc3nnc(-c4ccccc4F)o3)CC2)c(C)c1 0.325%
Cc1ccc(-c2c3c(=O)n(C)c(=O)n(C)c3c3cnc4ccccc4n23)cc1 -22.4%
Cc1ccc(S(=O)(=O)CC(=O)Nc2nc3c(C)cccc3s2)cc1 -18.7%
O=C(Nc1ccc(Cl)c(C(F)(F)F)c1)c1nc2ccccc2nc1N1CCCCC1 -13%
COc1ccc(-n2nnc(-c3nsc(NC(=O)c4cccc(C)c4)n3)c2C)cc1OC -7%
COc1ccccc1Nc1nc(N)nc(N)c1S(=O)(=O)c1ccccc1 -12.5%
COc1ccc(-c2[nH]c3c(c2-c2c(-n4cccc4)n(C)c(=O)[nH]c2=O)c(=O)[nH]c(=O)n3C)cc1F -6.58%
COc1cccc(NC(=O)/C(C#N)=C/c2c(C)n(Cc3ccccc3)c3ccccc23)c1 -20.1%
CCOC(=O)c1c(C)[nH]c(C)c1S(=O)(=O)N1CCCC(C(=O)Nc2cccc(CC)c2)C1 (stereo unspecified) -14.4%
CC(=O)N1CCc2cc(Br)cc(S(=O)(=O)NCCc3cccc(C)c3)c21 -11.5%
COC(=O)c1ccccc1NC(=O)c1nn(C)c2c1COc1ccccc1-2 5.9%
CCOCCCNC(=O)c1cn(CC(C)C)c(=O)c2c1c1ccccc1n2C -9.85%
COc1cccc(NC(=O)Cn2nnc(C(=O)NCc3ccc4c(c3)OCO4)c2N)c1 -9.01%
Cn1c(SCC(=O)Nc2nc3ccccc3s2)ncc(C(=O)Nc2ccc(Cl)cc2)c1=O -6.86%
CCN1CCN(c2ncc3c(n2)CCN(Cc2cccc(F)c2F)C3)CC1 -9.33%
CSc1ncc(Cl)c(C(=O)N(C)c2ccccc2)n1 -25.6%
Cc1cc(C)c(NC(=O)CSc2nc(=O)n(Cc3cccnc3)c3c2CCC3)c(C)c1 1.77%
CN(C)c1cc(NC(=O)CNC(C)(C)C)c(O)c2c1C[C@@H]1C[C@H]3[C@H](N(C)C)C(=O)C(C(N)=O)=C(O)[C@@]3(O)C(=O)C1=C2O -16.5%
COc1ccccc1Nc1ncc2c(n1)CCN(Cc1cc(F)cc(F)c1)C2 -16.4%
Cc1cccn2c(=O)c3cc(C#N)c(=O)n(-c4nnc(SCc5ccc(F)cc5)s4)c3nc12 -13.7%
COc1ccc(NC(=O)c2cccn2-c2nnc(N3CCCCC3)s2)c(OC)c1 -14.7%
CCOC(=O)COc1cc(C)c(Cl)cc1C(=O)c1ccn2nc(-c3ccc(OC)cc3)cc2n1 0.351%
O=C(CSc1ncc2c(n1)-c1cc(Cl)ccc1N(Cc1ccccc1)S2(=O)=O)NCCc1ccccc1 -9.22%
CS(=O)(=O)Nc1ccc(-c2nc3ccccc3s2)cc1 0.399%
CCOC(=O)c1ccc(NC(=O)CSc2nc(-c3ccc(F)cc3)cc(C(F)(F)F)c2C#N)cc1 -13.7%
CCOc1ccc(NC(=O)C2=C(C)C(=O)OC23CCC(C)CC3)cc1 (stereo unspecified) -5.59%
Cc1ccc(NC(=O)Nc2c(C)n(C)n(-c3ccccc3)c2=O)c(Cl)c1 -23.5%
COc1ccccc1NC(=O)c1ccc(-c2nc(COc3ccc(C)cc3)c(C)o2)cc1 -12.9%
CN(CCCN1c2ccccc2CCc2ccccc21)CC(=O)c1ccc(Cl)cc1 -11.7%
CCc1nn(CC(=O)NCCc2ccc(OC)c(OC)c2)c(=O)c2cc3occc3n12 -4.23%
CCCCOc1ccc(CNC(=O)CN2C(=O)CCn3nc(-c4cn(C)c5ccccc45)cc32)cc1 -15.7%
COc1ccc(NC(=O)C2CCCN(S(=O)(=O)c3c(C)[nH]c(=O)[nH]c3=O)C2)cc1 (stereo unspecified) 6.97%
CCOc1cccc(CNC(=O)c2ccc(N3CCCC3)c(NC(=O)Nc3ccccc3CC)c2)c1 -25.1%
CCOC(=O)c1c(C)[nH]c(C)c1S(=O)(=O)N(C)CC(=O)NCc1ccc(C)cc1 -3.69%
COc1ccc(C2CC(=O)c3cc(-c4nc(-c5ccc(C)cc5)cs4)c(=O)[nH]c3C2)cc1 (stereo unspecified) -12.7%
CC(C)c1ccc(NC(=O)Cc2ccc(NC(=O)N3CCCCc4ccccc43)cc2)cc1 -1.01%
CCC1CN(C(=O)NCc2ccc(F)cc2)c2cc(Cl)ccc2O1 (stereo unspecified) -15.4%
CCOc1ccc(/C=C/C(=O)Nc2sc3c(c2C(=O)OC)CCCC3)cc1 -7.36%
Nc1nc(Nc2cccc(Cl)c2)sc1C(=O)c1ccc(F)cc1 -5%
COc1ccc(-c2nn(-c3ccc(C)c(Cl)c3)c3c2cnc2cc(OC)c(OC)cc23)cc1 -7.67%
COc1cc(OC)c(NC(=O)CC(C)S(=O)(=O)c2ccc3c(c2)NC(=O)CO3)cc1Cl (stereo unspecified) -5.35%
CCn1cc(S(=O)(=O)c2ccc(OC)cc2)c(=O)c2cc(F)c(N3CCCCCC3)cc21 -19.3%
COc1ccc(S(=O)(=O)NCCc2csc(-c3cccc(F)c3)n2)cc1OC -29.4%
CCc1ccc2oc(-c3cccc(NC(=O)COc4ccccc4Cl)c3)nc2c1 -15.5%
CCOc1ccc2nc(N3CCCC(C(=O)Nc4ccc(CC)cc4)C3)sc2c1 (stereo unspecified) -13.7%
CCN(CC)S(=O)(=O)c1ccc2c(c1)N(CC(=O)NCCc1ccccc1)C(=O)CO2 -7.73%
CCN1CCN(c2nc3c(S(=O)(=O)c4ccc(C)cc4)nnn3c3ccsc23)CC1 7.25%
CCC(Oc1ccccc1)C(=O)Nc1cc(-c2ccccc2F)nn1-c1ccccc1 (stereo unspecified) -31.6%
Cc1ccc(NC(=O)Cn2c(=O)nc(-c3ccccc3)c3ccccc32)cc1 -15%
Cc1cccc(C(=O)n2nc(-c3cccnc3)nc2NCc2ccc(F)cc2)c1 -28.5%
Cc1c(C(=O)NCc2cccc(F)c2)oc2c1-c1[nH]ncc1CC2 7.68%
CCCCOc1ccc(CNC(=O)c2cnc3sc(N4CCCCCC4)nn3c2=O)cc1 -11.7%
CCCCNC(=O)CCn1nc(-c2ccc(Cl)cc2)c2ccccc2c1=O -15.3%
CCOc1ccc(NC(=O)CSc2nc3ccsc3c(=O)n2CC)cc1 -5.59%
COc1cc(NC(=O)C(CC(C)C)N2Cc3ccccc3C2=O)cc(OC)c1 (stereo unspecified) -28.2%
CCN(CC)C(=O)c1ccc2c(c1)N(Cc1ccccc1F)C(=O)c1ccccc1S2=O (stereo unspecified) 2.49%
CC(C)(C)c1ccc(C(=O)Nc2ccc(NC(=O)c3ccc(Cl)c(Cl)c3)cc2)cc1 -30.4%
CCC(=O)N1CCc2cc(S(=O)(=O)NC(Cc3ccccc3)C(=O)NCc3ccccc3OC)ccc21 (stereo unspecified) -22.1%
COc1ccc(-c2cc(C)no2)cc1S(=O)(=O)N1CCCC(C)C1 (stereo unspecified) -20.8%
CC(C)CCNC(=O)c1cc(-c2ccc(Br)s2)nc2ccccc12 -1.78%
Cn1c(=O)[nH]c(=O)c2c1nc(CN1CCN(c3ccccc3)CC1)n2Cc1c(F)cccc1Cl 1.23%
Cc1cccc(NC(=O)c2ccc3[nH]c(C)cc(=O)c3c2)c1 -13.3%
COc1cccc(NC(=O)Nc2ccc3snnc3c2)c1 -5.47%
Cc1c(C(=O)N2CCCCCC2)c(S(=O)(=O)Nc2ccc(OC(F)(F)F)cc2)c(C)n1C -20%
O=C1CC(c2ccccc2)Cc2[nH]c(=O)c(C(=O)Nc3ccc(F)cc3)cc21 (stereo unspecified) -1.86%
CCOc1ccc(CCNC(=O)CCCc2nnc3n(CCCOC)c(=O)c4sccc4n23)cc1 -7.4%
CCOC(=O)c1ccc(NC(=O)CSc2cc(-c3ccccc3)nc(C)n2)cc1 -11.9%
Cc1c(-c2ccc(Cl)cc2)c(=O)oc2c(CN3CCN(C)CC3)c(O)ccc12 -9.71%
O=C(CNC(=O)c1ccccc1Cl)OCc1cc(=O)n2nc(C3CC3)sc2n1 -7.35%
CC(C)CC(=O)Nc1nnc(S(=O)(=O)N(C)c2ccc(Cl)cc2)s1 11.8%
Cc1ccc(C)c(N(C)C(=O)CCNC(=O)Cn2cnc3ccccc3c2=O)c1 -4.69%
CC(C)c1nn2c(=O)cc(COC(=O)c3cccc(NC(=O)c4ccccc4F)c3)nc2s1 -7.61%
O=S(=O)(c1cccc2cnccc12)N1CCCNCC1 -16%
CCOc1ccc(C2c3c(-c4ccccc4O)n[nH]c3C(=O)N2Cc2cccnc2)cc1OC (stereo unspecified) -9.95%
O=C(Nc1cccc(Cl)c1)C(Cc1ccccc1)n1cccc1 (stereo unspecified) -3.55%
CCC1Oc2ccc(C)cc2N(CC(=O)NCc2ccc(F)cc2)C1=O (stereo unspecified) -18.1%
COc1cccc2sc(N(Cc3cccnc3)C(=O)C3CCCCC3)nc12 -10.6%
CCOC(=O)C1CCCN(C(=O)c2cc3c(Cl)nc4ccccc4c3s2)C1 (stereo unspecified) -11%
CCOC(=O)c1ccc2c(c1)sc1nc(-c3ccc(OCC)cc3)cn12 -11.9%
COc1cccc(CNC(=O)Cn2c(=O)cc(C(F)(F)F)c3c(C)nn(C)c32)c1OC -11.8%
O=C(NCCS(=O)(=O)N1CCN(c2ccccc2F)CC1)c1ccccc1C(F)(F)F -11.9%

From PubChem BioAssay AID1159614 (National Center for Advancing Translational Sciences (NCATS), 2016)
